In PMC4336329 (PLoS ONE, 2015):
Among all 310,000 compounds or so, about 14,000 (4.5%) showed an effect of 50% or more. Effects have a minus sign here. The list shows a part of the results.

Biological target: human ether-à-go-go-related gene (hERG) potassium channel (human, UniProt Q12809)
Experiment: primary screen, population patch clamp on CHO cells stably expressing hERG
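Also: peak tail current of the secondary pulse compared with the same well before compound.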

Sequence of human ether-à-go-go-related gene (hERG) potassium channel (Q12809 whole entry, looked up): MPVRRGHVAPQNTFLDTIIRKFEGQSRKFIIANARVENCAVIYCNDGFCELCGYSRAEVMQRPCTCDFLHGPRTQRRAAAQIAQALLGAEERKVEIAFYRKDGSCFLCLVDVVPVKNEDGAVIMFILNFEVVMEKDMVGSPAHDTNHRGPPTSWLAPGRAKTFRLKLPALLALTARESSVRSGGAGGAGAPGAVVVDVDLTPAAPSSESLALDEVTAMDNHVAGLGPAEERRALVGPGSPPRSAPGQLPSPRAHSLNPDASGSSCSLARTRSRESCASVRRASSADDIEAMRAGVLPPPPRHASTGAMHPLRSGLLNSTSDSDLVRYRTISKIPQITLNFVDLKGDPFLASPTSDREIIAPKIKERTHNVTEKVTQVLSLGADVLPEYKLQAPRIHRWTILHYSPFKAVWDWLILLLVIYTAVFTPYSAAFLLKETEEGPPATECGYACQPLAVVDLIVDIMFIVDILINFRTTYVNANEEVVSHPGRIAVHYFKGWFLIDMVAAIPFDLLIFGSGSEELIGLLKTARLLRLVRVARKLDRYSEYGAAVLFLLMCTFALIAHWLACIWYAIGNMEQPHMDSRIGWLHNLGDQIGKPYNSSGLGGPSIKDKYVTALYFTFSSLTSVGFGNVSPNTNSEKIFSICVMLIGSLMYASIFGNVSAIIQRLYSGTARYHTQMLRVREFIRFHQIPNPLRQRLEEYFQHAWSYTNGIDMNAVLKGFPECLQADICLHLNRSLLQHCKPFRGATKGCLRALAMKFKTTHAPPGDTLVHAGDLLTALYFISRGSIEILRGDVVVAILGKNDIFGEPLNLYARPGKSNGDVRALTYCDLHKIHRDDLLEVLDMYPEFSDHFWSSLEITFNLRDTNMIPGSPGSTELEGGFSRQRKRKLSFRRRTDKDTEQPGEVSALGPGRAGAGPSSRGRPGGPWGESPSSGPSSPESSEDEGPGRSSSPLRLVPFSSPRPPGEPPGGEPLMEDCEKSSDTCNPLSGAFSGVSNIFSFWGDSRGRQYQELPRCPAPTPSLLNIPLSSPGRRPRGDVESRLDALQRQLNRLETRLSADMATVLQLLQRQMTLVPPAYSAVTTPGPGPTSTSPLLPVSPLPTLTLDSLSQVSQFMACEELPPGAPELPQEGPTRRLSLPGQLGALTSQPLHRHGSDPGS

Row | SMILES | hERG current change (%, negative = inhibition) at 10uM [%]
1 | O=C(CN(C(=O)CCC(=O)Nc1nccs1)c1ccc(F)cc1)NCc1ccc(F)cc1 | 16.8
2 | Cc1ccc(/C=N/NC(=O)c2cccc(S(=O)(=O)Nc3cccc(Cl)c3)c2)o1 | 12.3
3 | COc1cccc(C(O)c2nc3ccccc3n2C(C)C)c1OC (centres unmarked) | 16.6
4 | COc1c(F)c(F)c(C(=O)Nc2c(C)cc(Br)cc2C)c(F)c1F | 11.2
5 | C/C(=N\Nc1cc(C)nc(-c2ccccc2)n1)c1cccc([N+](=O)[O-])c1 | 9.2
6 | CCC(=O)NC(c1cccc([N+](=O)[O-])c1)c1c(OC(C)=O)ccc2ccccc12 (centres unmarked) | -11.2
7 | O=C(O)CCN(Cc1ccccc1)S(=O)(=O)c1c(Cl)cccc1Cl | 8.15
8 | O=C(C[N+]12CCC(CC1)C(CO)C2)c1ccc([N+](=O)[O-])cc1.[Br-] (centres unmarked) | 16.8
9 | Cc1cccc(OC(C)c2ccnc3nc(/N=C/N(C)C)nn23)c1 (centres unmarked) | -10.7
10 | CCC(C(=O)O/N=C(\N)c1ccc(Cl)cc1)c1ccccc1 (centres unmarked) | -17.2
11 | Cc1ccccc1NC(=O)/C=C/c1ccc([N+](=O)[O-])s1 | 6.13
12 | O=C(CCS(=O)(=O)c1ccc(Br)cc1)N1CCN(c2ccc(F)cc2)CC1 | -66.3
13 | CCOC(=O)c1c(CC(C)C)csc1/N=C/C1=C(O)CCCC1=O | 12.9
14 | CC(C)(C)c1ccc(C(=O)c2c[nH]c(C(=O)NCCc3ccccn3)c2)cc1 | 15.1
15 | COC(=O)CCCNC(=O)c1ccccn1 | 4.61
16 | CN(CC(=O)Nc1ccccc1Cl)C(=O)c1cc(=O)[nH]c2ccccc12 | 2.52
17 | CN1CCC(OC(=O)c2ccccc2Cl)CC1.Cl | 0.522
18 | CC(C)(C)c1ccc(NNC(=O)C2CCC2)cc1 | 14.4
19 | CCCN(CC(=O)Nc1ccccc1C)C(=O)c1cc(=O)[nH]c2ccccc12 | 4.86
20 | COC1=CC(=O)O[C@@H](/C=C/c2ccccc2)C1 | -11.4
21 | CCCCC(=O)Nc1ccccc1C(C)C | 14.5
22 | CCn1c(SCC(=O)NNC(=O)c2ccc(C)cc2)nnc1-c1ccco1 | 18.2
23 | CNC(=O)/C=C1\NC(C)(C)Cc2c1ccc1ccccc21 | -17.3

Row | SMILES | hERG current change (%, negative = inhibition) at 10uM [%]
24 | COC(C(=O)Nc1ccc(F)cc1)c1ccccc1 (centres unmarked) | -0.691
25 | O=C(NCCCN1CCN(c2cccc(Cl)c2)CC1)c1nc(-c2ccncc2)no1 | -63.2
26 | CCOc1ccc(Cl)cc1S(=O)(=O)N1CCC(C(=O)NCc2ccco2)CC1 | -37
27 | O=C(OCC(=O)N1CCCC1)c1ccccc1OCc1ccccc1 | -1.81
28 | c1ccc(-c2nnsc2Sc2ccccn2)cc1 | 3.35
29 | COCC(=O)N1CCCC(C(=O)c2ccc(C(F)(F)F)cc2)C1 (centres unmarked) | -0.113
30 | O=C(Nc1nccs1)c1cnccn1 | -6.74
31 | Cc1ccc(Cn2nc(C)cc2C(=O)Nc2ccc(Cl)cc2)cc1 | 14.3
32 | CN(Cc1cn(C)nc1-c1cccc(Cl)c1)CC1CCCCO1 (centres unmarked) | -15.6
33 | Cc1ccc(NC(=O)CSc2nnc(-c3ccccn3)n2C)cc1 | -28.1
34 | O=C(Nc1cccnc1)c1cc([N+](=O)[O-])ccc1Cl | -0.51
35 | CCC(=O)N1CCN=C1SCc1c(F)cccc1Cl | -15.4
36 | CC(=O)Nc1cccc(-c2nn[nH]n2)c1 | 7.82
37 | CC(=O)c1c(C)[nH]c(C(=O)COC(=O)CNS(=O)(=O)c2ccccc2)c1C | -2.66
38 | CCOc1ccc(NC(=O)c2ccc(NC(=O)CN3C(=O)C(=O)N(CC(C)C)C3=O)cc2)cc1 | -7.16
39 | O=C(Nc1ccc(S(=O)(=O)N2CCOCC2)cc1)c1cccnc1 | 2.78
40 | COc1ccc(Br)cc1CNC(=O)Cc1cccs1 | 8.98
41 | CCN(CC)CCNCC(O)(c1ccc(Cl)cc1)c1ccc(Cl)cc1 | -82.4
42 | CCNc1nc(OC)nc(Oc2ccc(=O)n(-c3ccccc3)n2)n1 | 7.99
43 | O=C(COC(=O)c1ccccc1N1C(=O)C2C3CCC(C3)C2C1=O)c1ccccc1 (centres unmarked) | 1.28
44 | COc1cc([N+](=O)[O-])ccc1NC(=S)N1CCOCC1 | -0.54
45 | Cc1ccc(-c2nc3ccccc3[nH]2)cc1NC(=O)c1sc2ccccc2c1Cl | 15.9
46 | Cc1noc(C)c1CSCC(=O)Nc1cc(Cl)ccc1N1CCOCC1 | -11.7

Row | SMILES | hERG current change (%, negative = inhibition) at 10uM [%]
47 | O=S(=O)(N/N=C\C=C\c1ccccc1)c1ccc(Br)cc1 | -4.52
48 | COc1cccc(C2/C(=C(/O)c3cnn(-c4ccccc4)c3C)C(=O)C(=O)N2CCN(C)C)c1OC (centres unmarked) | 17
49 | CNC(=O)c1oc(-c2ccc(Cl)cc2)nc1C | 20.6
50 | CC(C)CC(NS(=O)(=O)c1ccc2c(c1)oc(=O)n2C)C(=O)N1CC=C(c2ccccc2)CC1 (centres unmarked) | -7.69
51 | COC(=O)c1cn(Cc2ccccc2C)nn1 | 1.17
52 | CCSc1nnc(NC(=O)c2ccco2)s1 | 8.1
53 | COc1ccc2[nH]c(C(=O)N(C)c3ccc(F)cc3F)cc2c1 | 24.2
54 | O=C(Nc1ccccc1Cl)C1C(c2ccccc2)C1(Cl)Cl (centres unmarked) | 11.2
55 | CC(=O)Nc1cccc(NC(=O)CSc2nnnn2C(C)C)c1 | 9.22
56 | Nc1ncnc(Nc2ccccc2)n1 | -3.59
57 | COc1cccc(C2CC(=O)Nc3cc(OC)c(OC)c(OC)c32)c1OC (centres unmarked) | -19.6
58 | Cc1ccc(NC(=O)c2ccc3c(c2)C(=O)N(c2ccccc2C)C3=O)nc1 | 4.99
59 | CCOC(=O)c1cccc(NC(=O)CSc2nncn2-c2ccccn2)c1 | -2.28
60 | O=C(c1cc(-c2ccccc2Cl)nc2ccc(Br)cc12)N1CCN(c2ccccn2)CC1 | -11.3
61 | Cn1cc(S(=O)(=O)NC2CCCC2)c(=O)n(C)c1=O | -5.74
62 | COc1ccc(N(C(=O)c2ccco2)S(=O)(=O)c2cccc([N+](=O)[O-])c2)cc1 | 23.4
63 | C#CCOC(=O)c1ccccc1C(=O)OCC#C | 3.64
64 | CCCOc1ccc(C(=O)N(CC(C)C)c2c(N)n(Cc3ccccc3)c(=O)[nH]c2=O)cc1 | -11.7
65 | O=S(=O)(c1ccc(S(=O)(=O)N2CCN(C/C=C/c3ccccc3)CC2)cc1)N1CCCC1 | 11.6
66 | COc1cc(C2CC(=O)c3cnc(N)nc3C2)cc(OC)c1OC (centres unmarked) | 9.98
67 | CCc1ccc(N2C(=O)C(Cl)=C(N3CCOCC3)C2=O)cc1 | 2.6
68 | N#CC1=C(N)Oc2n[nH]c(-c3cccs3)c2C1C1CCCCC1 (centres unmarked) | 8.73
69 | CCN(C(=O)COC(=O)CNC(=O)c1ccc(C)s1)c1ccccc1 | 16.5

Row | SMILES | hERG current change (%, negative = inhibition) at 10uM [%]
70 | COc1ccc(N2CCN(c3nc(Cl)nc(Nc4ccc(F)cc4)n3)CC2)cc1 | 7.8
71 | CN(C(=O)c1ccc(S(=O)(=O)N(C)C)cc1)c1ccc2ccccc2c1 | -18.4
72 | CC(C)COc1ccc(-c2nn(-c3ccccc3)cc2/C=C2/SC(=S)N(CC(=O)O)C2=O)cc1 | 10.2
73 | Cc1ccc(C)c(N(C(=O)CNC(=O)c2ccco2)C(C(=O)NC2CCCCC2)c2ccncc2)c1 (centres unmarked) | 3.37
74 | COc1ccc(/C=C\C(=O)c2c(O)ccc3c(C)cc(=O)oc23)cc1 | 17.1
75 | CC(C)C[C@H](NC(=O)C1(c2ccccc2)CCN(C(=O)[C@H]2CSCN2C(=O)OC(C)(C)C)CC1)C(=O)O | -8.02
76 | O=C(CCNS(=O)(=O)c1ccccc1F)NC1CCCCCC1 | -3.14
77 | O=C(COC(=O)c1cn(-c2ccccc2)nc1-c1ccccc1)c1cccc([N+](=O)[O-])c1 | 12.5
78 | CC(C)Oc1ccc(C(=O)/C(=C\c2cccs2)c2nc3ccccc3o2)cc1 | 24.3
79 | CCOC(=O)Cc1csc(/C(=N/O)C(N)=O)n1 | 18
80 | O=C(O)COc1ccccc1Cc1ccccc1 | 5.22
81 | O=C(O)c1cc(Nc2cc(Cl)c3nonc3c2[N+](=O)[O-])ccc1O | 13.6
82 | CC(=O)NC1(C(=O)O)CCCC1 | 7.13
83 | O=C(Nc1ccccc1)C12CC3CC(C1)CC(n1cnc([N+](=O)[O-])n1)(C3)C2 | -59.6
84 | Cc1ccc(NC(=O)CSc2nc3c(cc2C#N)C(=O)CCC3)cc1S(=O)(=O)N(C)C | -16.3
85 | CCOC(=O)c1c(C)[nH]c(C)c1C(=O)CSc1nc2ccccc2n1CC | -10.7
86 | CCN(CC)C(=O)CSc1nc2ccccc2c(=O)n1CC | -1.18
87 | COc1ccc(OC)c(CNC(=O)Cc2c(C(=O)O)[nH]c3ccc(Cl)cc23)c1 | 17.4
88 | CCN(CC(=O)NCc1ccc(F)cc1)C(=O)c1cccnc1SC | -62.9
89 | O=C(N=C1SC2CS(=O)(=O)CC2N1Cc1ccccc1)C1CCCO1 (centres unmarked) | 7.06
